{"source": "PubChem BioAssay AID686978", "about": "(National Center for Advancing Translational Sciences (NCATS), 2013)", "note": "Out of some 420,000 compounds screened, about 64,000 (15%) were called active. This list was built around the results that the source calls inconclusive (neither active nor inactive); the mix of calls is not that of the screen. Calls follow the shape of the dose curve; as a rule, active = well fitted inhibition curve with a large enough effect; inconclusive = small, poorly fitted or top-dose-only effect; inactive = flat fitted curve, though single readings scatter. Potencies of inconclusive entries are left out as doubtful fits. % is scaled to controls: 0 for no effect and ±100 for the full control effect; potency is read from the fitted curve at half-maximal effect; tags tell the direction and shape of the fitted curve."}
{"experiment": "qHTS for Inhibitors of human tyrosyl-DNA phosphodiesterase 1 (TDP1): qHTS in cells in absence of CPT; also: nearly all actives have a fitted effect of over 55% in size", "conditions": "DT40 Tdp1-/- hTDP1 cells, no CPT, ATP luminescence, 48 h; activity change, negative = growth inhibition: at 46.2 µM (top of the series) unless noted", "outline": "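Growth kinetics read by CellTiter-Glo luminescence after ≥48 hr at 37 °C. Cells: DT40 Tdp1-/- stably carrying human TDP1, 400 per well, compound exposure in the absence of CPT (DMSO vehicle).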"}
{"smiles": "CC(=O)/C(=N\\Nc1ccc(Cl)cc1Cl)Sc1nnc(-c2ccccc2)n1-c1ccccc1", "Potency": "inconclusive [inhibitor, partial curve]"}
{"smiles": "N#Cc1ccc(S(=O)(=O)N2CCCCC2c2cc(C(=O)N3CCOCC3)no2)cc1", "note": "(stereo unspecified)", "activity change, negative = growth inhibition": "inactive: -18.4%"}
{"smiles": "O=C1Nc2ccc([N+](=O)[O-])cc2C1(O)N1CCCCCC1", "note": "(stereo unspecified)", "activity change, negative = growth inhibition": "inactive: -6%"}
{"smiles": "Cc1onc(-c2ccccc2)c1C(=O)NCc1cccs1", "activity change, negative = growth inhibition": "inactive: -4.12%"}
{"smiles": "CC(=O)c1ccc(S(=O)(=O)NC2CC2)cc1", "activity change, negative = growth inhibition": "inactive: 22.4%"}
{"smiles": "CCN(CC)S(=O)(=O)c1ccc(NN)nc1", "Potency": "inconclusive [inhibitor, single point]"}
{"smiles": "CCc1ccc(C2(O)CC(C(F)(F)F)=NN2C(=O)Cc2ccc([N+](=O)[O-])cc2)cc1", "note": "(stereo unspecified)", "Potency": "inconclusive [inhibitor, single point]"}
{"smiles": "Cc1ccccc1CSc1nnc(-c2cccs2)n1Cc1ccco1", "Potency": "active: 23.1 µM"}
{"smiles": "N#CCSc1nnc(-c2ccccc2)c(-c2ccccc2)n1", "Potency": "inconclusive [inhibitor, partial curve, poor fit]"}
{"smiles": "Cc1ccc2cc(C)c3nnc(SCC(=O)c4cccs4)n3c2c1C", "Potency": "inconclusive [inhibitor, partial curve]"}
{"smiles": "Cc1ccc(C)n1-n1cnc2sc3c(c2c1=O)CCCCC3", "Potency": "inconclusive [inhibitor, single point]"}
{"smiles": "CCCCc1cc(=O)oc2cc(C)c3c(C(C)(C)C)coc3c12", "Potency": "inconclusive [inhibitor, single point]"}
{"smiles": "Cc1ccc(C(=O)O)c(NC=O)c1OCc1ccccc1", "activity change, negative = growth inhibition": "inactive: 34.4%"}
{"smiles": "C=CCC[C@H](Cc1ccc(F)cc1)C(=O)OC[C@@H](C)NC(=O)[C@H](CC=C)CC(=O)N(CCO)Cc1ccccc1", "Potency": "active: 18.4 µM"}
{"smiles": "COC(=O)C1NN=C(C(=O)c2ccccc2)C1c1ccccc1", "note": "(stereo unspecified)", "activity change, negative = growth inhibition": "inconclusive: -37.6% [inhibitor]"}
{"smiles": "O=C(O)CC/C(=N\\NC(=O)CNC(=O)c1ccc(F)cc1)c1ccccc1", "activity change, negative = growth inhibition": "inactive: 5.21%"}
{"smiles": "COc1nc(NCc2ccco2)nc(N2CCC(C)CC2)n1", "Potency": "inconclusive [inhibitor, single point]"}
{"smiles": "CN(C)CCSc1nc(N)c2c3c(sc2n1)CN(C)CC3", "Potency": "inconclusive [inhibitor, single point]"}
{"smiles": "c1csc(CNc2nc(-c3ccoc3)nc3ccccc23)c1", "Potency": "inconclusive [inhibitor, single point]"}
{"smiles": "COCCN=C1Sc2nc3cc(C)c(C)cc3cc2CN1Cc1cccs1", "Potency": "inconclusive [inhibitor, partial curve]"}
{"smiles": "NNC(=O)CNC(c1ccccc1)c1cc(Cl)ccc1NC(=O)c1ccccc1", "note": "(stereo unspecified)", "activity change, negative = growth inhibition": "inactive: -9.24%"}
{"smiles": "CCc1ccccc1NC(=O)[C@@H]1CCC(=O)N1C1OC(=O)c2c1ccc(OC)c2OC", "note": "(stereo partly specified)", "activity change, negative = growth inhibition": "inactive: 4.6%"}
{"smiles": "c1ccc(C2[C@H]3CN(Cc4cccnc4)[C@H](c4ccccc4)C34CC2(c2cccnc2)C4)cc1", "note": "(stereo partly specified)", "Potency": "inconclusive [inhibitor, single point]"}
{"smiles": "Cc1ncc(CO)c2c1Oc1nc(-c3ccc(Cl)cc3)nc(SCC(=O)N3CCCCC3)c1C2", "Potency": "active: 16.4 µM"}
{"smiles": "O=C(O)/C=C\\C(=O)Nc1ccccc1C#Cc1ccc(Br)cc1", "Potency": "inconclusive [inhibitor, single point]"}
{"smiles": "CCS(=O)(=O)Nc1ccc(C2=NN(C(=O)c3ccco3)C(c3ccco3)C2)cc1", "note": "(stereo unspecified)", "Potency": "active: 4.11 µM"}
{"smiles": "COc1ccc(C(=O)/C=C2/c3ccccc3CC(C)(C)N2C)cc1OC", "Potency": "active: 16.4 µM"}
{"smiles": "CC(=O)N1c2ccc(S(=O)(=O)NCCC(=O)N3CCCC(C)C3)cc2CC1C", "note": "(stereo unspecified)", "Potency": "inconclusive [inhibitor, single point]"}
{"smiles": "O=C(CSc1nnc(-c2ccncc2)n1CCc1ccccc1)NCc1ccccc1", "activity change, negative = growth inhibition": "inactive: 8.65%"}
{"smiles": "NNc1nc2c(Cl)c(Cl)ccc2s1", "Potency": "inconclusive [inhibitor, single point]"}
{"smiles": "CO/N=C/CC(=O)c1ccc([N+](=O)[O-])c(CS(=O)(=O)c2ccc(Cl)cc2)c1", "Potency": "inconclusive [inhibitor, single point]"}
{"smiles": "CC(C)c1ccc(C(=O)NNC(=O)c2ccncc2)cc1", "activity change, negative = growth inhibition": "inactive: -1.88%"}
{"smiles": "COc1ccccc1CNC(=O)c1cccs1", "activity change, negative = growth inhibition": "inactive: -22.4%"}
{"smiles": "Cc1ccc(/C=C2/C(=N)N3N=C(CC(=O)N4CCCC4)SC3=NC2=O)o1", "Potency": "inconclusive [inhibitor, partial curve]"}
{"smiles": "O=C(NCc1cc(Br)cc(Br)c1OC(=O)c1ccccc1[N+](=O)[O-])c1ccccc1", "Potency": "inconclusive [inhibitor, single point]"}
{"smiles": "O=C(CS(=O)(=O)c1ccc(Cl)cc1)NCc1ccccc1", "activity change, negative = growth inhibition": "inactive: -12.7%"}
{"smiles": "O=[N+]([O-])c1cccc(-c2nc(-c3ccccc3)no2)c1", "Potency": "inconclusive [inhibitor, single point]"}
{"smiles": "OCCCN1CCN(CCOc2ccccc2-c2ccccc2)CC1", "Potency": "inconclusive [inhibitor, single point]"}
{"smiles": "CNC(=O)C1=C(C)Nc2nc3ccccc3n2C1c1cccc(OC)c1", "note": "(stereo unspecified)", "activity change, negative = growth inhibition": "inactive: -19.9%"}
{"smiles": "CCN1CCC(N(Cc2ccc3c(c2)OCO3)C(=O)Nc2cc(F)ccc2F)CC1", "Potency": "inconclusive [inhibitor, partial curve, poor fit]"}
{"smiles": "Cc1cccc(NC(=O)COn2nnc3ccc(S(C)(=O)=O)cc32)c1", "Potency": "inconclusive [inhibitor, single point]"}
{"smiles": "CCN(CC)C(=O)c1c(NC(=O)c2cccc(C)c2)sc2c1CCC(C)C2", "note": "(stereo unspecified)", "Potency": "active: 16.4 µM"}
{"smiles": "COc1cc(CCN(C(=O)c2cc3ccccc3[nH]2)C(C)c2nc3ccccc3[nH]2)cc(OC)c1", "note": "(stereo unspecified)", "Potency": "inconclusive [inhibitor, single point]"}
{"smiles": "COc1cccc(OCc2cc(C(=O)N(C)Cc3nc4ccccc4[nH]3)no2)c1", "Potency": "inconclusive [inhibitor, single point]"}
{"smiles": "O=[N+]([O-])c1ccc2nc(-c3ccc(Cl)cc3)n(OCc3ccccc3)c2c1", "Potency": "inconclusive [inhibitor, partial curve, poor fit]"}
{"smiles": "CCOC(=O)C1(CCc2ccccc2)CCN(C(=O)C2CCOCC2)CC1", "Potency": "inconclusive [inhibitor, partial curve, poor fit]"}
{"smiles": "COc1ccc(C(CNC(=O)C2COc3ccccc3O2)N2CCCC2)cc1", "note": "(stereo unspecified)", "activity change, negative = growth inhibition": "inactive: -3.92%"}
{"smiles": "COc1ccc(CN(C)CC(=O)Nc2ccccc2C(F)(F)F)cc1", "Potency": "inconclusive [inhibitor, single point]"}
{"smiles": "CCCC(C(=O)NC1CCCCC1)N(Cc1ccco1)C(=O)CNS(=O)(=O)c1ccccc1", "note": "(stereo unspecified)", "Potency": "inconclusive [inhibitor, partial curve]"}
{"smiles": "COc1cccc(-n2c(N)c(C(=O)Nc3c(C)n(C)n(-c4ccccc4)c3=O)c3nc4ccccc4nc32)c1", "Potency": "inconclusive [inhibitor, single point]"}
{"smiles": "Cc1ccc(NC(=O)c2sc3nc(-c4cccs4)ccc3c2N)cc1F", "Potency": "inconclusive [inhibitor, single point]"}
{"smiles": "COc1ccc(-c2cc(C(F)(F)F)nc(SCCC(=O)Nc3ccc(OC)c(OC)c3)n2)cc1", "Potency": "active: 14.6 µM"}
{"smiles": "COc1ccc(S(=O)(=O)N2CCC(C(=O)Nc3ccccc3N3CCCC3)CC2)cc1OC", "activity change, negative = growth inhibition": "inactive: -5.18%"}
{"smiles": "CCCC(=O)c1c(NCCO)cc(C)oc1=O", "activity change, negative = growth inhibition": "inactive: 2.25%"}
{"smiles": "CCCCc1nnc(SCc2cc(=O)c3cc(F)ccc3[nH]2)n1C", "Potency": "inconclusive [inhibitor, single point]"}
{"smiles": "OC(CN1CCOCC1)Cn1c2c(c3ccccc31)CCCC2", "note": "(stereo unspecified)", "activity change, negative = growth inhibition": "inactive: -7.24%"}
{"smiles": "COc1cc(CN2C[C@@H](CO)O[C@@H](n3cnc4c(Nc5ccccc5)ncnc43)C2)cc(OC)c1OC", "Potency": "inconclusive [inhibitor, single point]"}
{"smiles": "CC(C)(C)c1ccc(OC(=O)c2ccc3snnc3c2)cc1", "Potency": "inconclusive [inhibitor, single point]"}
{"smiles": "CN(CCc1ccccc1)C1CCCN(S(=O)(=O)N(C)C)C1", "note": "(stereo unspecified)", "activity change, negative = growth inhibition": "inactive: 8.31%"}
{"smiles": "CCOC(=O)C1=C(O)/C(=C/c2ccc(OCC(=O)Nc3ccc(C)cc3)cc2)N=C1C", "activity change, negative = growth inhibition": "inactive: -4.71%"}
{"smiles": "CC(C)(C)NC(=O)C1CCN(c2nc3ccccc3nc2C(F)(F)F)CC1", "Potency": "inconclusive [inhibitor, partial curve]"}
{"smiles": "O=C(Nc1cc(Cl)cc(Cl)c1)N[C@@H]1CC[C@@H](CCNS(=O)(=O)c2cccc(F)c2)O[C@@H]1CO", "Potency": "active: 16.4 µM"}
{"smiles": "COc1ccc2[nH]c(=O)c(CN(CC3CCCO3)S(=O)(=O)c3ccccc3F)cc2c1", "note": "(stereo unspecified)", "Potency": "inconclusive [inhibitor, partial curve]"}
{"smiles": "Cc1ccc(S(=O)(=O)NC(CC(C)C)C(=O)Nc2ccncc2)cc1", "note": "(stereo unspecified)", "Potency": "inconclusive [inhibitor, single point]"}
{"smiles": "Cc1ccc(-n2ncc3c(NC4CCCCCC4)ncnc32)cc1", "Potency": "active: 18.4 µM"}
{"smiles": "CC(=O)c1c(C)[nH]c(C(=O)Nc2cccc(C(F)(F)F)c2)c1C", "Potency": "active: 20.6 µM"}
{"smiles": "Cc1cc(NC(=O)CN2CCCC(C)C2)n(-c2nc3ccccc3s2)n1", "note": "(stereo unspecified)", "Potency": "inconclusive [inhibitor, single point]"}
{"smiles": "O=C1CCCC2=C1C(c1ccc(O)c(Br)c1)C1=C(CCCC1=O)N2c1ccccc1", "Potency": "active: 23.1 µM"}
{"smiles": "CC(C(=O)NC1C(=O)N2C(C(=O)O)=C(CSc3nnnn3C)CSC12)n1cc(Cl)cn1", "note": "(stereo unspecified)", "activity change, negative = growth inhibition": "inactive: -11.7%"}
{"smiles": "COc1ccc(C(=O)NCCn2cc(SCc3c(F)cccc3Cl)c3ccccc32)cc1", "Potency": "inconclusive [inhibitor, single point]"}
{"smiles": "O=C(CSc1nc2ccccc2c(=O)n1-c1ccc(F)cc1F)NC1CCS(=O)(=O)C1", "note": "(stereo unspecified)", "Potency": "inconclusive [inhibitor, single point]"}
